24 compounds from ChEMBL document CHEMBL4888484, “Replenishing the malaria drug discovery pipeline: Screening and hit evaluation of the MMV Hit Generation Library 1 (HGL1) against asexual blood stage Plasmodium falciparum ,using a nano luciferase reporter read-out” (2022) can be followed below.

Out of some 150,000 compounds screened, about 540 (0.36%) showed an effect of 50% or more. The list shows a part of the results.

In the experiment the test system is Plasmodium falciparum. As to the kind of experiment: Primary screen in NF54 nanoGlo assay, in single point, at 2uM, 72h; a lower Z score goes with more inhibition. It counts as functional, Erythrocyte. To be noted: timepoint 72 hour.
For orientation: % Inhibition means the change of the read-out against control, counted positive when it falls. With `Cc1ccccc1-c1noc([C@@H]2CCCN2)n1`, the “% Inhibition” value is listed as -7% and the Z score was 1.34.
With `NC(=O)c1coc(CNC(=O)c2nc3n(n2)CCCN3)c1`, the “% Inhibition” value was -7% and the Z score is 1.05.
On the same counts, the results for `c1ccc(-c2cc(-c3nccn3C[C@H]3COCCO3)on2)cc1` are -18% and 2.07.
On the same counts, the results for `CO[C@@H](C(=O)Nc1nccnc1C1CC1)c1ccc(F)cc1` are -6% and 0.76.
On the same counts, the results for `CC(C)(C)C(=O)Nc1cccc(Cl)c1` are -16% and 2.65.
`CC(C)c1nnc(COc2ccccc2S(=O)(=O)NCC2CC2)o1`: the “% Inhibition” value is given as -3% and the Z score came to 0.35.
With `CC(C)Oc1nc(-c2cccc(F)c2)n(-c2cccc(NC(=O)c3cccs3)c2)n1`, the “% Inhibition” value came out at 0% and the Z score is listed as -0.07.
On the same counts, the results for `Cc1ccccc1C(=O)N[C@@H](N1CCCCCC1)C(Cl)(Cl)Cl` are -2% and 0.18.
For the compound `Cc1nc(CNC2(c3ccc(F)cc3F)CCC2)no1`, the “% Inhibition” value is -2% and the Z score turned out to be 0.22.
On the same counts, the results for `CC(=O)Nc1ccc(Oc2ccc(-c3noc(/C=C/c4ccco4)n3)cc2)cc1` are -8% and 0.95.
On the same counts, the results for `CCC1C(=O)NCCN1C(=O)NCC(OC)c1ccccc1` (stereo not drawn) are -3% and 0.52.
On the same counts, the results for `O=C(NC[C@H]1CN(Cc2ccccc2)CC12CCOCC2)N1CCCC1` are 4% and -0.63.
In the case of `COCC1=CCN(C(=O)C2CCN(c3ccc(C)cn3)CC2)CC1`, the “% Inhibition” value was -13% and the Z score turned out to be 1.99.
On the same counts, the results for `CC(C)c1nccc(CN2CCc3[nH]cnc3[C@H]2c2c(F)cccc2F)n1` are -2% and 0.32.
In the case of `O=C(Nc1ccc(Cl)cn1)OCC(F)(F)F`, the “% Inhibition” value was found to be 2% and the Z score is -0.39.
On the same counts, the results for `Cc1ccsc1-c1nc(-c2ccc3[nH]c(=O)[nH]c3c2)cs1` are -12% and 1.78.
On the same counts, the results for `COc1ccc(-c2ccc3nc(-c4cc(F)cc(F)c4)oc3c2)c(OC)c1OC` are 23% and -2.35.
On the same counts, the results for `O=C(Cc1noc(Cc2ccc(F)cc2)n1)Nc1cccc(Cl)c1Cl` are -12% and 1.1.
Take `COc1ccc(CNC(=O)CC2CCN(C(=O)c3cc4ccccc4[nH]3)CC2)c(OC)c1`: the “% Inhibition” value is reported as -18% and the Z score was determined as 1.68.
Consider `Cc1csc(N(CCc2ccccc2)C(=O)[C@H]2CCC(=O)N2)n1`, for which the “% Inhibition” value was -15% and the Z score is listed as 1.68.
On the same counts, the results for `Cc1cc(C)cc(C(=O)N2CCN(S(=O)(=O)c3c(C)nn(C)c3C)CC2)c1` are -5% and 0.64.
On the same counts, the results for `C[C@@]1(O)COC2(CN(C(=O)C3(c4ccccc4)CCCC3)C2)C1` are -9% and 1.35.
On the same counts, the results for `O=C(O)C1(Oc2ccc(F)cc2)CCN(c2ncnc3[nH]ccc23)CC1` are -6% and 1.19.
As for `Cc1ccc(-c2noc(CN3CCC4(CC3)NC(=O)NC4=O)n2)cc1`, the “% Inhibition” value is given as -9% and the Z score was 1.23.
